{"source": "patent US20230338553A1", "about": "(TECHNISCHE UNIVERSIT T DRESDEN, published 2023)", "binders": {"B1": {"name": "BICs containing RIBOXXOL and scFv(h-AM1)-BAP (other)", "scFv": "DAAQPARRARRTKLGTELGSEVQLLESGGGLVQPGGSLRLSCVASGFTFSSYTMSWVRQAPGKGLEWVSYIHNGGGHTYYADSVKGRFTISRDNSKNTLYLQMNSLRAEDTAVYYCTRRMYYGNSHWYFDVWGAGTRVTITSAKTTPPSVYGGGGSGGGGSGGGGSTNSDIQMTQSPSSLSASVGDRVTITCRTSQSISNYLNWYQQKPGKAPKLLIYYTLKLNSGVPSRFSGSGSGTDFTLTISSLQPEDFATYYCQQSKTLPWTFGGGTKLEIKRADAAPTVSGPEQKLISEEDLNSAVDMSGLNDIFEAQKIEWHEGAPSSHHHHHH", "chain": "ARKCSLTGKWTNDLGSNMTIGAVNSRGEFTGTYITAVTATSNEIKESPLHGTQNTINKRTQPTFGFTVNWKFSESTTVFTGQCFIDRNGKEVLKTMWLLRSSVNDIGDDWKATRVGINIFTRLRTQKE", "modifications": "mono-biotinylated at the BAP"}}, "target": "T1, Prostate Stem Cell Antigen (PSCA) (human, UniProt O43653 12-83)", "T1 sequence (looked up)": "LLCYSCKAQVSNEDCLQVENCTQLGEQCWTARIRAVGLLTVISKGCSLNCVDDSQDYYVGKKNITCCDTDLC", "experiment": "cell-based or functional assay", "data": [{"binder": "B1", "values": [{"measurement": "IC50 of NF-kappaB activation (SEAP reporter, 293T-Blue^TLR3/PSCA cells)", "result": 12.5, "unit": "nM"}]}]}
